Experimental data: PubChem BioAssay AID360 (National Center for Advancing Translational Sciences (NCATS), 2006)
About 550 (1.1%) of roughly 48,000 compounds were called active. Inconclusive results (about 4%) are left out. Cut-off read from the data, not from the text of the source: active = potency below about 15 µM; inconclusive = mostly about 16 µM to 33 µM; inactive = weaker than that. Some of the results follow.

These molecules were tested against Lysosomal acid glucosylceramidase (Homo sapiens) (UniProt P04062) (assay: Glucocerebrosidase). Settings: purified enzyme, resorufin glucoside fluorescence (screen aimed at inhibitors), 20 min.
UniProt P04062, sequence (P04062 whole entry, looked up): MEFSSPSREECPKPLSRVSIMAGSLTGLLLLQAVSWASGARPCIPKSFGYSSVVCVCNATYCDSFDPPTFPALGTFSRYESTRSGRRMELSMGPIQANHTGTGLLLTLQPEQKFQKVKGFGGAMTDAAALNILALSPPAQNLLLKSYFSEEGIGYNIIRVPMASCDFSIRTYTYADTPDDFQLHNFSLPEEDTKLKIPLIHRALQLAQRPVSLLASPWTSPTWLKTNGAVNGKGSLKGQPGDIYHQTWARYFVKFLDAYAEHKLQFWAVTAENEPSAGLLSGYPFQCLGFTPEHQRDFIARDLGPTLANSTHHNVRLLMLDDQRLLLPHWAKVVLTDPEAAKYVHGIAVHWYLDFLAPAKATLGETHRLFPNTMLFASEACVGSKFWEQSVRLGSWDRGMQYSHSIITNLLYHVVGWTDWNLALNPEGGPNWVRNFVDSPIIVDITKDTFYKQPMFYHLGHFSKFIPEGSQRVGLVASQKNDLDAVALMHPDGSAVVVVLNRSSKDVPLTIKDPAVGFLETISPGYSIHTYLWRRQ
Procedure, shortened: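 Wild-type enzyme at 0.2 nM final in 50mM citric acid/KH2PO4, 10mM sodium taurocholate, 0.01% tween-20, pH 5.9, with resorufin beta-D-glucopyranoside at 30 uM final. Compounds titrated, 20 min at RT, red fluorescence read; AC50 from titration.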
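Note: the screen sought inhibitors.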
Potency is the fitted concentration of half-maximal effect.

Potency, inactive:
COc1ccc(-n2c(SCC(=O)Nc3ccc(C(=O)O)cc3)nnc2-c2cccs2)cc1 > 76.9 µM, CCOc1ncccc1C(=O)OCC(=O)N1CC(=O)Nc2ccccc21 > 76.9 µM, COC(=O)c1ccc2c(c1)NC(=O)C(N1CCOCC1)S2 (centres undefined) > 76.9 µM, COc1ccccc1OCC(=O)OCC(=O)Nc1ncc(Cl)cc1Cl > 76.9 µM, Cc1nc(C)c(C(=O)C2=C(O)C(=O)N(CCN3CCOCC3)C2c2cccs2)s1 (centres undefined) > 76.9 µM, COCCOC(=O)c1c(C)oc2ccc(O)c(CN3CCC(C)CC3)c12 > 76.9 µM, Cc1ccc(-c2nnc3sc(-c4ccc5c(c4)OCCO5)nn23)cc1 > 76.9 µM, CCCC(=O)Nc1cccc2c1CCCC2 > 76.9 µM, Cc1ccc(C(=O)N2CCN(c3ccc(Cl)cc3)CC2)cc1 > 76.9 µM, Cc1cc(C)nc(Nc2nc(C)c3cc4c(cc3n2)OCO4)n1 > 76.9 µM, O=C(c1cccc(F)c1)N1CCCC(C(=O)N2CCCC2)C1 (centres undefined) > 76.9 µM, CCOc1ccc2[nH]c(O)c(NC(C)=O)c2c1 > 76.9 µM, O=C(CSc1nc2ccccc2c(=O)n1Cc1ccco1)N1CCN(c2ccccc2)CC1 > 76.9 µM, CSc1ccc(N2C(=O)NC3(CCCCC3)C2=O)cc1 > 76.9 µM, N#CC1=C(N)Oc2c(oc(CO)cc2=O)C1c1cccs1 (centres undefined) > 76.9 µM, CC(=O)N1CCN(C(=O)CCc2nc3sc4c(c3c(=O)[nH]2)CCCC4)CC1 > 76.9 µM, CCOC(=O)N1CCN(C(=O)c2cn(CC)c3ccc(S(=O)(=O)N4CCCC4)cc3c2=O)CC1 > 76.9 µM, CCc1nnc(NC(=O)CCC(=O)N2CCCC2)s1 > 76.9 µM, CC1CCN(S(=O)(=O)Cc2ccccc2Cl)CC1 > 76.9 µM, CC(C)NC(=O)CCNC(=O)c1ccc(F)cc1 > 76.9 µM, O=C(Nc1cccc(Cn2cccn2)c1)c1cc2c(s1)CCCC2 > 76.9 µM, Cc1ccc2c(c1)[nH]c1c(N3CCN(Cc4ccc5c(c4)OCO5)CC3)ncnc12 > 76.9 µM, Cc1sc(NC(=O)CSc2nnc(C)c(=O)[nH]2)c(C#N)c1C > 76.9 µM, Cn1ncc(C#N)c1NC(=O)C1CC(c2c(F)cccc2Cl)=NO1 (centres undefined) > 76.9 µM, O=C(c1cnn2c1NC(c1ccco1)CC2C(F)(F)F)N1CCN(c2cccc(Cl)c2)CC1 (centres undefined) > 76.9 µM, CC1=C(C(=O)OC(C)C)C(C)NC(=O)N1 (centres undefined) > 76.9 µM, O=C(Nc1ccccc1C(F)(F)F)C1CC(=O)N(c2ccccc2F)C1 (centres undefined) > 76.9 µM, Cc1ccccc1CSc1nnc(-c2cccnc2)n1N > 76.9 µM, NCc1ccc(-c2nc3ccccc3o2)cc1 > 76.9 µM, CCc1ccc(NC(=O)N(CCN2CCOCC2)C2CCN(C(C)=O)CC2)cc1 > 76.9 µM, CCCCCCn1c2c(c(=N)c3c1CCC3)CCC2 > 76.9 µM, O=C(COC(=O)C1CCN(C(=O)c2ccc(Cl)cc2)CC1)c1ccco1 > 76.9 µM, CCOc1ccccc1OCC(=O)Nc1ccc(S(=O)(=O)N(C)C)cc1 > 76.9 µM, CCC(Sc1ncccc1C(=O)O)C(=O)N1CCCC1 (centres undefined) > 76.9 µM, CCOc1ccc(-c2[nH]nc3c2C(c2ccc(O)cc2)C(C#N)=C(N)O3)cc1 (centres undefined) > 76.9 µM, COc1ccc(NC2CC(=O)N(c3cccc(C)c3)C2=O)cc1 (centres undefined) > 76.9 µM, COc1ccc(N2CCN(C(c3cc4ccc(C)cc4[nH]c3=O)c3nnnn3C3CCCC3)CC2)cc1 (centres undefined) > 76.9 µM, CCCCn1c2nc3ccccc3nc2c2c(=O)n(CCC(C)C)cnc21 > 76.9 µM, Cc1c(Br)c(=O)[nH]c(=O)n1COCc1ccccc1 > 76.9 µM, O=C(NCc1cn2ccsc2n1)Nc1ccc(Cl)cc1 > 76.9 µM, CCCN(CCC)CCCNC(=O)CC1Nc2ccccc2NC1=O (centres undefined) > 76.9 µM, CCOC(=O)c1sc(-c2ccccc2)cc1NC(=O)CSc1nnnn1C > 76.9 µM, CCOC(=O)C1=C(C)NC2=C(C(=O)CCC2)C1c1cccs1 (centres undefined) > 76.9 µM, O=C(NC1CCCC1)C(c1cccnc1)N(C(=O)c1csnn1)C1CC1 (centres undefined) > 76.9 µM, OC(CN1CCOCC1)CN1CCOCC1 > 76.9 µM, COC(=O)\C(C(C)=O)=C(/C=C/C=C/N(C)C)N(C)C > 76.9 µM, Cc1ncoc1C(=O)Nc1nccs1 > 76.9 µM, COc1ccc(OC)c(CNC(=O)C2CCN(C(=O)N(C)C)CC2)c1 > 76.9 µM, CCOC(=O)c1ccccc1NC(=O)CSc1nc2ccccc2n1CC(=O)N1CCCC1 > 76.9 µM, CC(=O)c1cc(OC(=O)N2CCOCC2)ccc1OC(=O)N1CCOCC1 > 76.9 µM, O=C(O)CNC(=O)c1ccccc1F > 76.9 µM, CCOC(=O)c1cccc(NC(=O)CN2C(=O)C3C4C=CC(C4)C3C2=O)c1 (centres undefined) > 76.9 µM, Cc1ccc(C)c2[nH]c(=O)c(CCNC(=O)c3ccc(Br)o3)cc12 > 76.9 µM, CC(C)c1nc2oc3c(NCC4CCCO4)ncnc3c2c2c1COC(C)(C)C2 (centres undefined) > 76.9 µM, CN(C)c1ccc(NC(=O)Nc2cccc(Cl)c2)cc1 > 76.9 µM, COc1cccc2c3c(c(C)nc12)CC(C)O3 (centres undefined) > 76.9 µM, COc1ccc(OC)c(NC(=O)C2CCN(S(=O)(=O)c3cccs3)CC2)c1 > 76.9 µM, CCC/C(O)=C1\C(=O)CC(C)(C)CC1=Nc1ccc(OC)cc1OC > 76.9 µM, Cc1ccc(Nc2nc(CSc3nnc(-c4cccs4)o3)cs2)cc1
